Where “and” joins values, the source holds several entries; their conditions need not be identical. Equal values may be shown once. The whole screen tested about 420,000 compounds, of which about 50,000 (12%) were called active. The shares of active, inactive and inconclusive entries below differ from those in the screen. Calls come from the whole dose curve; as a rule, active = well fitted inhibition curve with a large enough effect; inconclusive = small, poorly fitted or top-dose-only effect; inactive = flat fitted curve, though single readings scatter. A potency beside an inconclusive call is a rough fit, not a confirmed value.
Test: qHTS for Inhibitors of human tyrosyl-DNA phosphodiesterase 1 (TDP1): qHTS in cells in presence of CPT; note: nearly all actives have a fitted effect of over 55% in size
Details: chicken DT40 Tdp1-/-;hTDP1 cells + 20 nM CPT, ATP luminescence, 48 h; activity change, negative = growth inhibition: at 46.2 µM (top of the series)
How it was run: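 Chicken DT40 Tdp1-/- cells stably complemented with human TDP1 were seeded at 400 cells/well in medium containing 20 nM camptothecin, exposed to pin-transferred compounds, and grown at 37 °C for at least 48 hr. Viability was read as ATP luminescence.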
% is set by controls: 0 for no effect and ±100 for the full control effect; potency is the fitted concentration of half-maximal effect; tags give direction and shape of the fitted curve.

| Structure (SMILES) | Potency | activity change, negative = growth inhibition |
| --- | --- | --- |
| Cc1cc(C)c(S(=O)(=O)NCC(c2cccs2)S(=O)(=O)c2ccccc2)c(C)c1 (configuration not stated) | active: 1.16 µM |  |
| CN(C)c1ccc(/C=C/c2cnnc3ccccc23)cc1 | active: 7.08 µM |  |
| Cc1cccc(-n2c(O)c(/C=N/NC(=O)c3ccccc3Cl)c3ccccc3c2=O)n1 | inconclusive: 20.6 µM [inhibitor, single point] |  |
| COc1ccc(CC(N)c2csc(NC(=O)c3cc(C(C)(C)C)nn3Cc3ccccc3)n2)cc1 (configuration not stated) | active: 5.8 µM |  |
| COc1ccccc1CCNC(=O)C(=O)NCC(c1ccco1)S(=O)(=O)c1ccc(C)cc1 (configuration not stated) | active: 20.6 µM |  |
| O=C(COc1cccc(F)c1)NNC(=O)Cc1ccc(S(=O)(=O)N2CCOCC2)s1 |  | inactive: -5.12% |
| COC(=O)C1CCCCN1Cc1nc(N(C)C)c2ccccc2n1 (configuration not stated) |  | inactive: 5.34% [at 9.04 µM] |
| CC(=O)Nc1cncc(-c2cccc(C(=O)NCCN(C)C)c2)n1 |  | inactive: -0.332% |
| CCOc1cc(CNCC(C)C)c(Cl)cc1OCC(=O)Nc1ccccc1 | inconclusive: 16.4 µM [inhibitor, partial curve] |  |
| Cc1ccc(C(=O)NNC(=S)NC(=O)c2ccc(Cl)cc2)cc1 | active: 16.4 µM |  |
| Cc1cc(/C=C2\C=Cc3ccccc32)cc(C)c1[N+](=O)[O-] | inconclusive: 35.5 µM [inhibitor, single point] |  |
| COc1ccccc1CCn1cnc(-c2ccc(OC)c(OC)c2)c1C(C)C | active: 8.2 µM |  |
| COc1ccc(/C=C/C(=O)NC(=S)N2CCOCC2)cc1 |  | inactive: -7.44% |
| COc1ccc(CCN2C(=O)CSC2c2ccc(F)cc2)cc1 (configuration not stated) |  | inconclusive: -35.8% [inhibitor] |
| O=C(NN=C1CCCC1)c1[nH]c2ccc(Cl)cc2c1-c1ccccc1 | inconclusive: 20.6 µM [inhibitor, single point] |  |
| O=C(CSc1cn(CC(=O)N2CCCCC2)c2ccccc12)NCC1CCCO1 (configuration not stated) |  | inactive: -4.94% |
| Cc1ccc(Nc2cc(C(=O)NCCCN3CCOCC3)c3ccccc3n2)cc1C | inconclusive: 20.6 µM [inhibitor, single point] |  |
| CCc1nc(SCC(=O)N2CCC(C)CC2)c2c(=O)n(C)c(=O)n(C)c2n1 | inconclusive: 29.1 µM [inhibitor, single point] |  |
| Cc1ccc(F)c(S(=O)(=O)NC(=O)C2(C)CCN2C(=O)c2ccc(C3CCCCC3)cc2)c1 (configuration not stated) |  | inactive: -20.6% |
| Cc1ccc(NCc2nc3ccccc3n2CCOc2ccccc2)cc1 | inconclusive: 18.4 µM [inhibitor, single point] and inconclusive: 20.6 µM [inhibitor, single point] |  |
| CCCOc1cccc(C(=O)Nc2cccc(NC(=O)c3ccco3)c2)c1 | inconclusive: 29.1 µM [inhibitor, single point] |  |
| COc1ccccc1Nc1cc(C(=O)NCc2cccs2)c2ccccc2n1 | active: 25.9 µM |  |
| NS(=O)(=O)c1ccc(N/C=C\C(=O)c2ccc(F)cc2)cc1 |  | inactive: -8.85% |
| COc1ccccc1-c1nnc(C2CCN(C(=O)c3ccc(C)cc3)CC2)o1 |  | inactive: -26.8% |

| Structure (SMILES) | Potency | activity change, negative = growth inhibition |
| --- | --- | --- |
| COc1ccc(-c2noc(-c3nnn(-c4cc(C)ccc4C)c3N)n2)cc1 | inconclusive: 20.6 µM [inhibitor, single point] |  |
| Cc1nc(Cl)c(S(N)(=O)=O)c(C)c1Cl |  | inactive: 5.58% |
| CCOC(=O)N1C2=NC(C(=O)OC)=C(C(=O)OC)[C@@H]3N(Cc4ccccc4)c4ccccc4[C@]23C[C@H]1C(=O)OC | active: 18.4 µM |  |
| COc1ccc(/C=N/NC(=O)c2ccc(COc3ccccc3Cl)o2)c(OC)c1C | inconclusive: 29.1 µM [inhibitor, single point] |  |
| NC(=O)CSc1ncc2c(n1)-c1ccccc1N(Cc1cccc(F)c1)S2(=O)=O | inconclusive: 29.1 µM [inhibitor, single point] |  |
| CCNc1nc(NCC)n2c(SCC(=O)Nc3ccccc3C(F)(F)F)nnc2n1 |  | inactive: -16.6% |
| Cc1cccc(-c2nc(S(=O)(=O)c3ccc(F)cc3)c(NCCCN3CCOCC3)o2)c1 | inconclusive: 13 µM [inhibitor, partial curve] |  |
| CCOC(=O)c1ccc(NC(=S)NC(=O)c2cncc(Br)c2)cc1 |  | inactive: -18.7% |
| COc1ccc(-c2cc(C(F)F)n3ncc(C(=O)NCCCN4CCCC4=O)c3n2)cc1 | inconclusive: 29.1 µM [inhibitor, single point] |  |
| Cc1ccc(-c2nc(CS(=O)CC(=O)N3CCN(c4ccc(Cl)cc4)CC3)c(C)o2)cc1 (configuration not stated) | active: 16.4 µM |  |
| O=C(c1ccc2c(=O)n3c(nc2c1)CCCCC3)N1CCN(c2ccccc2F)CC1 |  | inactive: -14% |
| CCC(=O)NC(Nc1sc2c(c1C(=O)OC)CCC2)C(Cl)(Cl)Cl (configuration not stated) | active: 14.6 µM |  |
| CC(=O)N1CCSc2ccc(S(=O)(=O)N3CCC(C)CC3)cc21 | inconclusive: 29.1 µM [inhibitor, single point] |  |
| CCN(CC)CCNC(=O)c1ccc(Cn2c(=O)c3cccn3c3cccnc32)cc1 |  | inactive: 5.98% |
| O=C(CN(C(=O)Cn1nnc(-c2ccccc2F)n1)c1cccc2c1CCCC2)NCc1ccccc1 | inconclusive: 29.1 µM [inhibitor, single point] |  |
| O=C(Cn1nc(-c2ccc(Cl)cc2)c2ccccc2c1=O)Nc1cccnc1 | inconclusive: 8.2 µM [inhibitor, partial curve] |  |
| O=C(CCN1CCOCC1)NC12CC3CC(CC(C3)C1)C2 |  | inactive: -3.14% |
| CS(=O)(=O)Nc1ccc(-c2cnc3cccnn23)cc1 | inconclusive: 25.9 µM [inhibitor, single point] |  |
| Cc1ccc(S(=O)(=O)c2cc3c(=O)n4cccc(C)c4nc3n(CC3CCCO3)c2=N)cc1C (configuration not stated) | active: 5.8 µM |  |
| Cc1nc2ccccc2c(=O)n1-c1ccc(NC(=O)C(F)(F)F)cc1 |  | inactive: -21.5% |
| COc1cccc(-c2cc(C(=O)NCC3CCCO3)c3cc(Br)cc(C)c3n2)c1 (configuration not stated) | inconclusive: 16.4 µM [inhibitor, single point] |  |
| COc1cc(-c2nc3c4ccccc4nc(=S)n3[nH]2)cc(OC)c1OC | inconclusive: 25.9 µM [inhibitor, single point] |  |
| Cc1ccc(SCC(=O)OCC(=O)NCCc2ccccc2)cc1 |  | inactive: -1.18% |
| O=C(COC(=O)CNC(=O)c1ccc(Br)o1)Nc1ccc2c(c1)OCCO2 | inconclusive: 8.2 µM [inhibitor, partial curve, poor fit] |  |

| Structure (SMILES) | Potency | activity change, negative = growth inhibition |
| --- | --- | --- |
| CCn1ncc(Br)c1C(=O)NC1CCCCCCC1 | inconclusive: 20.6 µM [inhibitor, single point] |  |
| CCN(CC)CCOC(=O)c1ccc(NC(=O)c2cn(-c3ccccc3)nc2-c2cccs2)cc1 | inconclusive: 25.9 µM [inhibitor, single point] |  |
| NC(CSC1(c2cccc3ccccc23)c2ccccc2-c2ccccc21)C(=O)O (configuration not stated) | inconclusive: 29.1 µM [inhibitor, single point] |  |
| O=C(Nc1ccccc1Cl)N1CCN(c2ccc3nnc(-c4ccc(F)cc4)n3n2)CC1 | active: 18.4 µM |  |
| NC(=O)c1ccsc1NC(=O)COC(=O)/C=C/c1ccccc1[N+](=O)[O-] | inconclusive: 25.9 µM [inhibitor, single point] |  |
| Cc1ccc2c(c1)C(C)CC(C)(C)N2C(=O)NC1CCCCC1 (configuration not stated) |  | inactive: -8.04% |
| COc1ccc(NS(=O)(=O)c2ccc(C)c(C(=O)NCCCN3CCCC3=O)c2)cc1 |  | inactive: -2.3% |
| Cc1ccc(-n2ncc(C(=O)NCCc3ccsc3)c2C2CCN(C(=O)OC(C)(C)C)CC2)cc1C | active: 16.4 µM |  |
| Cc1ccc(-c2cc(C(F)F)n3ncc(C(=O)N4CCCc5ccccc54)c3n2)cc1 | inconclusive: 20.6 µM [inhibitor, single point] |  |
| COc1ccc(S(=O)(=O)N2CCC(C(=O)Nc3cc(Cl)ccc3N3CCOCC3)CC2)cc1OC | inconclusive: 20.6 µM [inhibitor, single point] |  |
| Cc1ccccc1CCNC(=O)C1CCC(=O)N(CCc2cccc(F)c2)C1 (configuration not stated) | inconclusive: 29.1 µM [inhibitor, single point] |  |
| Cc1c(Cl)c([N+](=O)[O-])nn1CCCC(=O)Nc1cccc(Cl)c1Cl | inconclusive: 20.6 µM [inhibitor, single point] |  |
| COC(=O)[C@@]1(Cc2ccc(OC)cc2)[C@H]2c3cc(C(=O)N(C)C)n(Cc4ccc(OC(F)(F)F)cc4)c3C[C@H]2CN1C(=O)c1ccccc1 | active: 20.6 µM |  |
| Cc1cc(C)c2c(=O)n3c(nc2c1)C(CC(C)C)NC(=O)c1cc2ccccc2cc1-3 (configuration not stated) | inconclusive: 3.26 µM [inhibitor, single point] |  |
| O=C(CC(NCc1cccnc1)C(=O)O)Nc1ccc(F)cc1 (configuration not stated) |  | inactive: -2.6% |
| CC1CCCC(NC(=O)CN(C)CC(=O)Nc2ccc(F)cc2)C1C (configuration not stated) | inconclusive: 20.6 µM [inhibitor, single point] |  |
| Fc1ccccc1CN1CCN(c2ncccn2)CC1 |  | inactive: 5.53% |
| CSc1ccc2nnc(-c3ccc(C)cc3)n2n1 | inconclusive: 22.4 µM [inhibitor, single point] |  |
| COc1cccc(-c2sc3ccc(OC)cc3c2C#CC(C)(C)O)c1 | active: 23.1 µM |  |
| CCOc1ccc(C2NC(=O)C(C#N)=C(S)N2c2ccc(C)cc2)cc1OC (configuration not stated) | inconclusive: 16.4 µM [inhibitor, partial curve] |  |
| COc1ccc(Cc2noc(CN(C)CC(O)c3ccccc3)n2)cc1OC (configuration not stated) |  | inactive: -11.2% |
| O=C(Nc1ccccc1)c1cc([N+](=O)[O-])ccc1NCc1cccnc1 | inconclusive: 29.1 µM [inhibitor, single point] |  |
| O=C(NC(Cc1ccccc1)C(=O)N1CCN(c2ccccn2)CC1)c1ccco1 (configuration not stated) |  | inactive: -20.4% |
| CCOc1ccccc1NC(=O)c1c(NCc2sccc2C)sc2c1CCCCC2 | active: 8.2 µM |  |
